Experimental data as given in patent US20250170268A1, “METHODS AND TOOLS FOR CONJUGATION TO ANTIBODIES” (priority 2022, published 2025).
Entries after “also recorded” stand apart in the source; their conditions may differ.

B1: ADC7-M (conjugate)
heavy: EVQLQESGPGLVKPSQTLSLTCTVSDGSVSRGGYYLTWIRQHPGKGLEWIGYIYYSGSTYFNPSLRSRVTMSVDTSKNQFSLKLSSVTAADTAVYYCARGIAVAPFDYWGQGTLVTVSSASTKGPSVFPLAPSSKSTSGGTAALGCLVKDYFPEPVTVSWNSGALTSGVHTFPAVLQSSGLYSLSSVVTVPSSSLGTQTYICNVNHKPSNTKVDKRV[letters of human IgG1 Fc with changes left out]
light: EIVLTQSPATLSVSPGERATLSCRTSQSVRSNLAWYQQKPGQAPRLLIYAASTRATGIPARFSGSGSGTEFTLTISSLQSEDFAVYYCQQYTNWPFTFGPGTKVDIKRTVAAPSVFIFPPSDEQLKSGTASVVCLLNNFYPREAKVQWKVDNALQSGNSQESVTEQDSKDSTYSLSSTLTLSKADYEKHKVYACEVTHQGLSSPVTKSFNRGECGGTLQSPP
B2: ADC6-M (conjugate)
heavy: EVQLQESGPGLVKPSQTLSLTCTVSDGSVSRGGYYLTWIRQHPGKGLEWIGYIYYSGSTYFNPSLRSRVTMSVDTSKNQFSLKLSSVTAADTAVYYCARGIAVAPFDYWGQGTLVTVSSASTKGPSVFPLAPSSKSTSGGTAALGCLVKDYFPEPVTVSWNSGALTSGVHTFPAVLQSSGLYSLSSVVTVPSSSLGTQTYICNVNHKPSNTKVDKRV[letters of human IgG1 Fc with changes left out]
light: EIVLTQSPATLSVSPGERATLSCRTSQSVRSNLAWYQQKPGQAPRLLIYAASTRATGIPARFSGSGSGTEFTLTISSLQSEDFAVYYCQQYTNWPFTFGPGTKVDIKRTVAAPSVFIFPPSDEQLKSGTASVVCLLNNFYPREAKVQWKVDNALQSGNSQESVTEQDSKDSTYSLSSTLTLSKADYEKHKVYACEVTHQGLSSPVTKSFNRGEC
B3: ADC3-M (conjugate)
heavy: EVQLQESGPGLVKPSQTLSLTCTVSDGSVSRGGYYLTWIRQHPGKGLEWIGYIYYSGSTYFNPSLRSRVTMSVDTSKNQFSLKLSSVTAADTAVYYCARGIAVAPFDYWGQGTLVTVSSASTKGPSVFPLAPSSKSTSGGTAALGCLVKDYFPEPVTVSWNSGALTSGVHTFPAVLQSSGLYSLSSVVTVPSSSLGTQTYICNVNHKPSNTKVDKRVEPKSCDRTHTCPPCPAPEAAGGPSVFLFPPKPKDTLYITREPEVTCVVVDVSHEDPEVKFNWYVDGVEVHNAKTKPREEQYNSTYRVVSVLTVLHQDWLNGKEYKCKVSNKALPAPIEKTISKAKGQPREPQVYTLPPSREEMTKNQVSLTCLVKGFYPSDIAVEWESNGQPENNYKTTPPVLDSDGSFFLYSKLTVDKSRWQQGNVFSCSVMHEALHNHYTQKSLSLSPG
light: EIVLTQSPATLSVSPGERATLSCRTSQSVRSNLAWYQQKPGQAPRLLIYAASTRATGIPARFSGSGSGTEFTLTISSLQSEDFAVYYCQQYTNWPFTFGPGTKVDIKRTVAAPSVFIFPPSDEQLKSGTASVVCLLNNFYPREAKVQWKVDNALQSGNSQESVTEQDSKDSTYSLSSTLTLSKADYEKHKVYACEVTHQGLSSPVTKSFNRGECGGTLQSPP
modifications: GGG-glucuronide-exatecan, DAR 4
B4: ADC1-M (conjugate)
heavy: EVQLQESGPGLVKPSQTLSLTCTVSDGSVSRGGYYLTWIRQHPGKGLEWIGYIYYSGSTYFNPSLRSRVTMSVDTSKNQFSLKLSSVTAADTAVYYCARGIAVAPFDYWGQGTLVTVSSASTKGPSVFPLAPSSKSTSGGTAALGCLVKDYFPEPVTVSWNSGALTSGVHTFPAVLQSSGLYSLSSVVTVPSSSLGTQTYICNVNHKPSNTKVDKRVEPKSCDKTHTCPPCPAPEAAGGPSVFLFPPKPKDTLYITREPEVTCVVVDVSHEDPEVKFNWYVDGVEVHNAKTKPREEQYNSTYRVVSVLTVLHQDWLNGKEYKCKVSNKALPAPIEKTISKAKGQPREPQVYTLPPSREEMTKNQVSLTCLVKGFYPSDIAVEWESNGQPENNYKTTPPVLDSDGSFFLYSKLTVDKSRWQQGNVFSCSVMHEALHNHYTQKSLSLSPG
light: EIVLTQSPATLSVSPGERATLSCRTSQSVRSNLAWYQQKPGQAPRLLIYAASTRATGIPARFSGSGSGTEFTLTISSLQSEDFAVYYCQQYTNWPFTFGPGTKVDIKRTVAAPSVFIFPPSDEQLKSGTASVVCLLNNFYPREAKVQWKVDNALQSGNSQESVTEQDSKDSTYSLSSTLTLSKADYEKHKVYACEVTHQGLSSPVTKSFNRGEC

Columns and labels:
[1] = Pharmacokinetic study in human FcRn transgenic mice
[2] = tested on: CEACAM5-negative MDA-MB-231 cells in the presence of CEACAM5-positive SK-CO-1; experiment: Bystander assay, co-culture of antigen-negative and antigen-positive cells; format: cell-based, human; conditions: for non-specific effect on MDA-MB-231 only controls in bystander assay: 1E-9M, MDA-MB-231 cells alone; for bystander effect against CEACAM5-negative MDA-MB-231 cells: ADC concentration of 1 nM, co-culture with SK-CO-1
[3] = tested on: CEACAM5-positive cell lines; experiment: Cell viability assay, CEACAM5-positive cell lines taken together; format: cell-based, human
Experimental: Cytotoxicity effects of the ADC on the cancer cell lines were measured by cell viability assays. Cells were seeded in a volume of 90 μL in 96-well plates the day before treatment. Test compounds (ADCs or free payloads) were formulated at 10-fold the starting concentration in cell culture medium. Test compounds were serial diluted (1:4) and 10 μL of each dilution was added to the cells in triplicates. Plates were cultured at 37° C. in a CO2 incubator for six days. For cell viability measurement, Cell Titer-Glo® reagent (Promega™ Corp, Madison, WI) was added to each well, and plates processed according to the manufacturer's instructions. Luminescence signals were measured using a Varioskan plate reader (Thermo Fisher). Luminescence readings were converted to % viability relative to untreated cells. Data was fitted with non-linear regression analysis, using log (inhibitor) vs. response, variable slope, 4-parameter fit equation using Genedata Screener or GraphPad Prism. Data is shown as % relative cell viability vs. molar compound concentration, error bars indicating standard deviation (SD) of duplicates or triplicates. Geometric mean values of IC50s derived from multiple experiments were calculated.
A fold reduction in IC50, defined as a S[…], was calculated by dividing the IC50 against CEACAM5-negative MDA-MB-231 cells by the IC50 against each CEACAM5-positive cell line (see Table 6). […]

[4] = tested on: human pancreatic adenocarcinoma cell line-derived xenograft model HPAF-II; experiment: HPAF-II xenograft efficacy study; format: in vivo, mice (Hsd: Athymic Nude-Foxn1nu); conditions: for anti-tumor effect, HPAF-II xenograft, 1 or 6 mg/kg: single i.v. treatment at 1 or 6 mg/kg; for anti-tumor effect, HPAF-II xenograft, 1 mg/kg: single i.v. treatment with 1 mg/kg; for anti-tumor effect, HPAF-II xenograft, higher dosage: single i.v. treatment, higher dosage (6 mg/kg)
Experimental: Efficacy of ADC1-M and ADC3-M in comparison to ADC8 was evaluated in the human pancreatic adenocarcinoma cell line-derived xenograft model HPAF-II (ATCC, CRL-1997). Six to eight weeks old immunodeficient female mice (Hsd: Athymic Nude-Foxn1nu, Envigo) were injected subcutaneously in the right flank with 5×10^6 HPAF-II cells. When tumors reached a mean volume of 150 mm^3, 10 mice/group were treated once intravenously with ADC1-M (1 mg/kg or 6 mg/kg) or with ADC3-M (1 mg/kg or 6 mg/kg) or with ADC8 (1 mg/kg or 6 mg/kg). Tumor length (L) and width (W) were measured with calipers and tumor volumes were calculated using the formula L×W^2/2.

[5] = tested on: human pancreatic, cell line derived xenograft model BxPC3; experiment: BxPC3 xenograft efficacy study; format: in vivo, mice (Hsd: Athymic Nude-Foxn1nu); conditions: single i.v. treatment day 0; ADC1-M 5 mg/kg; ADC2-M 5 mg/kg or 10 mg/kg
Experimental: Efficacy of ADC1-M and ADC2-M has been evaluated in the human pancreatic, cell line derived xenograft model BxPC3 (ATCC, CRL-1687). 5×10^6 BxPC3 cells were injected subcutaneously into the right flank of six to eight weeks old immunodeficient female mice (Hsd: Athymic Nude-Foxn1nu, Envigo). When tumors reached a mean volume of 85 mm^3, 10 mice/group were treated once intravenously with vehicle (saline solution) or ADC1-M (5 mg/kg; day 0) or with ADC2-M (5 mg/kg or 10 mg/kg; day 0). Tumor length (L) and width (W) were measured with calipers and tumor volumes were calculated using L×(W^2)/2.

[6] = 3 mg/kg single i.v., HuFcRn mice

Molecule | AUCinf [1, 6] | AUClast [1, 6] | non-specific effect on MDA-MB-231 only controls in bystander assay [2] | bystander effect against CEACAM5-negative MDA-MB-231 cells [2] | in vitro potency against CEACAM5-positive cell lines [3] | Tlast (h) [1, 6] | anti-tumor effect, HPAF-II xenograft, 1 or 6 mg/kg [4] | anti-tumor effect, HPAF-II xenograft, 1 mg/kg [4] | anti-tumor effect, HPAF-II xenograft, higher dosage [4] | C0 relative to theoretical maximal concentration ([1]; assuming dilution in 40 mL/kg plasma volume) | anti-tumor effect, BxPC3 xenograft [5]
B1 | 6140 µg·h/mL | 5720 µg·h/mL | no non-specific effect | potent bystander effect; also recorded: much more potent bystander effect | comparable results like the respective ADC with YTE mutation (ADC2-M) |  |  |  |  |  | 
B2 | 2850 µg·h/mL | 2850 µg·h/mL | no non-specific effect | potent bystander effect; also recorded: much more potent bystander effect |  | up to 336 h |  |  |  |  | 
B3 |  |  |  |  |  |  | significant anti-tumor effect | mild and temporary anti-tumor effect | much stronger anti-tumor effect |  | 
B4 | 2590 µg·h/mL | 2580 µg·h/mL | no non-specific effect | potent bystander effect; also recorded: much more potent bystander effect |  |  | significant anti-tumor effect | mild and temporary anti-tumor effect | much stronger anti-tumor effect | slightly lower than theoretical maximal concentration | significant anti-tumor effect
